In the RNAGym collection of RNA variant scans (doi:10.1093/nar/gkz1192):
Read counts are not given, so values of variants with three or more changes are uncertain.

B1: CPEB3 Ribozyme (parent)
chain: UAACAGGGGGCCACAGCAGAAGCGUUCACGUCGCAGCCCCUGUCAGAUUCUGGUGAAUCUGCGAAUUCUGCUGUAUAUCUC

Variants of: B1
Experiment: self-cleavage, relative activity (ratio to wild type); higher = more cleavage; in vitro, sequencing
How it was run: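 After error-prone PCR and barcoding, CPEB3 ribozyme mutant libraries were transcribed with T7 RNA polymerase at 37°C for 5 hours, then given 15 min with DNase I before an EDTA stop, and they cleaved during both steps. Reverse transcription with template switching preceded Illumina sequencing. Relative activity divides a variant's cleaved/total read fraction by the unmutated ribozyme's. At least 5 reads were required per variant, and three batches were averaged.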
Variant UAACAGGGGGCCACAGCAGAAGCGUUCACGUCGCGGCCCCUGUCAGAUUCUGGUGAAUCUGCGAACUCUGCCGUAUAUCUC [A35G U66C U72C] has a self-cleavage of 1.02.
With UAACAGGGGGCCACAGCAGAAGCGUUCACGUCGCUGCCCCUGUCUGAUUCUGGCGAAUCUGCGAACCCUGCUGUAUAUCUC [A35U A45U U54C U66C U67C] the self-cleavage was 0.14.
With UAACAGGGGGCCACAGCAGAAGCGUUCACGUCGCUGCCCUUGUCAGAUUCAGGUGAAUCUGCGAAUUCUGCUGUAUAUCUC [A35U C40U U51A] the self-cleavage was 0.31.
With UAACAGGGGGCCACAGCAGAAGCGUUCACGUCGCUGCCCCUGUCAGAUUCUGGUGAGUCUGCGUAUUCUGCUGUAUAUCUC [A35U A57G A64U] the self-cleavage was 0.2.
UAACAGGGGGCCACAGCAGAAGCGUUCACGUCGCGGCCCCUGUCAGAUUCUGGUGAAUCUGCGAAUCCAGCUGUAUAUCUC [A35G U67C U69A] gave a self-cleavage of 0.46.
With UAACAGGGGGCCACAGCAGAAGCGUUCACGUCGCUGCACCUGUCAGAUUCUGGUGAAUCUGCGGAUUCAGCUGUAUAUCCC [A35U C38A A64G U69A U80C] the self-cleavage was 0.12.
Variant UAACAGGGGGCCACAGCAGAAGCGUUCACGUCGCGGCCCCUGUCAGAUUCUGGUGAAUCUGCGAAUUCUGCUGCAUAUCAC [A35G U74C U80A] has a self-cleavage of 1.51.
Work on UAACAGGGGGCCACAGCAGAAGCGUUCACGUCGCUGCCCCUGUCAAAUUCUGGUGAAUCUGCGAAUUCUGCUGUAUACCUC [A35U G46A U78C] yielded a self-cleavage of 0.1.
In the case of UAACAGGGGGCCACAGCAGAAGCGUUCACGUCGCUGCCCCUGUCAGGUUCUGGCGAAUCUGCGAAUUCUGCUGUAUAUCUC [A35U A47G U54C], the self-cleavage is reported as 0.42.
In the case of UAACAGGGGGCCACAGCAGAAGCGUUCACGUCGCUGCCCCUGUCUGAUUCUGGGGAAUCUGCGAAUUCUGCAGUAUUUCUC [A35U A45U U54G U72A A77U], the self-cleavage is reported as 0.07.
Work on UAACAGGGGGCCACAGCAGAAGCGUUCACGUCGCUGCCCCUGUCAGGUUCUGGUGAAUCUGCGAAUUCUGCCGUAUGUCUC [A35U A47G U72C A77G] yielded a self-cleavage of 0.43.
Work on UAACAGGGGGCCACAGCAGAAGCGUUCACGUCGCGGCCCCUGUCAGAUUCUGGUGAAUCUGCGAAUACUGCAGUAUAUCUA [A35G U67A U72A C81A] yielded a self-cleavage of 1.28.
For UAACAGGGGGCCACAGCAGAAGCGUUCACGUCGCUGCCCCUGUCAGAUUCUGGUGGAUCUGCGAAUUCUGCUGUAUACCUC [A35U A56G U78C], the self-cleavage was 0.36.
UAACAGGGGGCCACAGCAGAAGCGUUCACGUCGCUGCCCCUAACAGAUUCUGGUGAAUCUGCGAAUUCUGCUGUAUAUCUC [A35U G42A U43A] showed a self-cleavage of 0.17.
Variant UAACAGGGGGCCACAGCAGAAGCGUUCACGUCGCUUCCCCUGUCAGGUUCUGGUGAAUCUGCGAAUUCUGCUGUAUAUCUC [A35U G36U A47G] has a self-cleavage of 0.33.
For UAACAGGGGGCCACAGCAGAAGCGUUCACGUCGCGGCCCCUGUCAGAUUCUGGUGAAUCUGCGAAUUCAGCUGAAUAUCUC [A35G U69A U74A], the self-cleavage was 0.89.
UAACAGGGGGCCACAGCAGAAGCGUUCACGUCGCUGCCCCUGUCAGAUUCUGGUGAUUCUGCGAAUUCUGCUGUAUAUCCC [A35U A57U U80C] gave a self-cleavage of 0.3.
Work on UAACAGGGGGCCACAGCAGAAGCGUUCACGUCGCUGCCCCUGUCAGAUUCUGGUGAAUAUGCGAGUUCUGCUGUAUGUCUC [A35U C59A A65G A77G] yielded a self-cleavage of 0.05.
For UAACAGGGGGCCACAGCAGAAGCGUUCACGUCGCUGCCCCUGUCUGAUUCUGGUGAAUCUGCGAAUUCAGCUGUAUAUCAC [A35U A45U U69A U80A], the self-cleavage was 0.1.
UAACAGGGGGCCACAGCAGAAGCGUUCACGUCGCUGCCCCUGUCAGGUUCUGGUGUAUCUGCGAAUUCUGCUGUAUAUCUC [A35U A47G A56U] gave a self-cleavage of 0.15.
UAACAGGGGGCCACAGCAGAAGCGUUCACGUCGCUGCCCCUGUCAGAUUCUGGUGAAUCUGGGAAUCCUGCUGUAUAUCUC [A35U C62G U67C] gave a self-cleavage of 0.11.
UAACAGGGGGCCACAGCAGAAGCGUUCACGUCGCUGCCCCUGUCAGAUUCUGGUGAGUCUGCGAAUUCUACUGUAUAUCUC [A35U A57G G70A] gave a self-cleavage of 0.2.
UAACAGGGGGCCACAGCAGAAGCGUUCACGUCGCUGCCCCUGUCGGAUUCUGGUGAAUCUGCGAAUUCUGCUGCAUAUCCC [A35U A45G U74C U80C] showed a self-cleavage of 0.6.
With UAACAGGGGGCCACAGCAGAAGCGUUCACGUCGCUGCCCCUGUCAGAUUCUGGUGAAUCUGCGGAUUCUGCAGUAUAUCUC [A35U A64G U72A] the self-cleavage was 0.14.
Variant UAACAGGGGGCCACAGCAGAAGCGUUCACGUCGCUGCCCCUGUCCGAUUCUGGUGAAUCUGCGGAUUCUGCCGCACAUCUC [A35U A45C A64G U72C U74C U76C] has a self-cleavage of 0.27.
UAACAGGGGGCCACAGCAGAAGCGUUCACGUCGCUGCCCCUGUCAGAUUCUGGUGUAUCUGCGGAUUCUGCUGUAUAUCUC [A35U A56U A64G] showed a self-cleavage of 0.12.
Work on UAACAGGGGGCCACAGCAGAAGCGUUCACGUCGCUGCCCUUGUCAGAUUCUGGUGAAUCAGCGAAUUCUGCUGUAUAUCUC [A35U C40U U60A] yielded a self-cleavage of 0.32.
For UAACAGGGGGCCACAGCAGAAGCGUUCACGUCGCUGCCCCUGUCGGAUUCUGGUGAAUCUGCGAAUCCUGCCGUAAAUCUC [A35U A45G U67C U72C U76A], the self-cleavage was 0.1.
UAACAGGGGGCCACAGCAGAAGCGUUCACGUCGCUGCCCCUGUCAGAUUAUGGUGAAUCUGCGAAUUCUGCUGCAUAUCUC [A35U C50A U74C] gave a self-cleavage of 0.89.
For UAACAGGGGGCCACAGCAGAAGCGUUCACGUCGCUGCCCCUGUCGGACUCUGGUGAAUCUGCGAAUUCUGCUGUAUAUCUC [A35U A45G U48C], the self-cleavage was 0.05.
Variant UAACAGGGGGCCACAGCAGAAGCGUUCACGUCGCUGCCCCUGUCAGAUUCUGGUGAGUCUGCGAACUCAGCUGUAUAUCAC [A35U A57G U66C U69A U80A] has a self-cleavage of 0.09.
In the case of UAACAGGGGGCCACAGCAGAAGCGUUCACGUCGCUGCCCCUGUCGGACUCUGGUGAAUCUGCGGAUUCUGCUGUAUAUCUC [A35U A45G U48C A64G], the self-cleavage is reported as 0.07.
Work on UAACAGGGGGCCACAGCAGAAGCGUUCACGUCGCUGCCCCUGUCAGGUUCUGGUGAAUCUGCGAGUUCUGCAGUAUAUCUC [A35U A47G A65G U72A] yielded a self-cleavage of 0.2.
Variant UAACAGGGGGCCACAGCAGAAGCGUUCACGUCGCUGCCCCUGUCAGAUUCUGGUGAAUCUGCGCACUCUGCUGUAUACCUC [A35U A64C U66C U78C] has a self-cleavage of 0.09.
